# Among all 2,300 compounds or so, about 330 (14%) showed activity.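 The calls were made as follows: active = median modified Z-score above 1.96; inactive = 1.96 or below.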 The list shows a part of the results, in another mix than the full data.
# System: HepG2 Srxn1-GFP reporter cells (+30 nM CDDO-Me)
# Assay: Srxn1-GFP intensity median modified Z-score relative to plate median; higher = stronger NRF2 / oxidative stress reporter activation, active = hit call of the paper
# Settings: 10 µM; exposure time: 24h
# In short: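 The per-plate modified Z-score of GFP intensity, taken as a median across replicates, is what each value represents. Three replicate plates of HepG2 Srxn1-GFP BAC reporter cells were exposed for 24 h to an NRF2 activator at 30 nM combined with compound at 10 μM (≤0.1% DMSO). Cytoplasmic GFP per cell was read from confocal images, excluding any with under 100 cells, and scaling used 1.4826 × median absolute deviation.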
row,SMILES,Srxn1-GFP intensity median modified Z-score
1,COc1ccccc1OCC(O)CO (stereo unspecified) [euspeclibcmpd142],inactive: -0.122
2,Cc1cccc(C)c1OCC(C)N (stereo unspecified) [euspeclibcmpd637],inactive: -0.792
3,COC(=O)C[C@H]1C(C)(C)[C@@H](O)C2CC3=C4C=C(OC)O[C@@H](c5ccoc5)[C@]4(C)CCC3[C@@]1(C)C2=O (stereo partly specified) [euspeclibcmpd1395],inactive: 1.94
4,O=C(CCCCCCCC(=O)NCCO)NCCO [euspeclibcmpd1246],inactive: 0.216
5,Oc1cc(O)c2c(c1)O[C@H](c1cc(O)c(O)c(O)c1)[C@H](O)C2 [euspeclibcmpd1320],inactive: -0.555
6,CN(C(=O)C(Cl)Cl)c1ccc(OC(=O)c2ccco2)cc1 [euspeclibcmpd813],inactive: 0.185
7,COc1cc(/C=C/C(N)=O)cc(OC)c1OC [euspeclibcmpd509],inactive: 0.124
8,CC(C)(C#N)c1cc(Cn2cncn2)cc(C(C)(C)C#N)c1 [euspeclibcmpd453],inactive: -0.25
9,CC(=O)O[C@]1(C)CC[C@@]23CC1C(C)(C)[C@@H]2CC[C@H]3C [euspeclibcmpd1510],active: 3.58
10,Oc1c(I)cc(Cl)c2cccnc12 [euspeclibcmpd705],active: 2.87
11,CN(C)CCOC(C)(c1ccccc1)c1ccccn1 (stereo unspecified) [euspeclibcmpd106],inactive: -0.105
12,C=CCNC(N)=S [euspeclibcmpd1266],inactive: -0.282
13,CC(=O)c1ccc2c(c1)N(CCCN(C)C)c1ccccc1S2 [euspeclibcmpd808],inactive: -0.832
14,C[N+](C)(C)CCO [euspeclibcmpd2453],inactive: 0.0198
15,C[N+](C)(C)CCO [euspeclibcmpd2447],inactive: -0.414
16,CC(=O)NS(=O)(=O)c1ccc(NC(=O)c2ccccc2C(=O)O)cc1 [euspeclibcmpd1007],inactive: -0.557
17,COC(=O)C[C@H]1C(C)(C)C2(O)OC34CC2C(=O)[C@]1(C)C3CC[C@]1(C)C4=CC(=O)O[C@H]1c1ccoc1 (stereo partly specified) [euspeclibcmpd1512],inactive: -0.229
18,CC(=O)O[C@H]1CC2CCC3C(CC[C@@]4(C)C3C[C@H]([N+]3(C)CCCCC3)[C@@H]4OC(C)=O)[C@@]2(C)C[C@@H]1N1CCCCC1 (stereo partly specified) [euspeclibcmpd853],inactive: -0.182
19,CC(S)C(=O)NCC(=O)O (stereo unspecified) [euspeclibcmpd1253],inactive: -0.0566
20,COc1ccc(OC)c(C(O)CNC(=O)CN)c1 (stereo unspecified) [euspeclibcmpd558],inactive: 0.451
21,CC=C(C1=CC(=O)C(OC)=CC1=O)c1ccc(OC)cc1 [euspeclibcmpd1441],active: 5.77
22,CC(C)(C)NCC(O)COc1cccc2c1CCC(=O)N2 (stereo unspecified) [euspeclibcmpd864],inactive: -0.0151
23,CC(=O)NCCCS(=O)(=O)O [euspeclibcmpd2115],inactive: 0.202
24,O=C(C1CCCCC1)N1CC(=O)N2CCc3ccccc3C2C1 (stereo unspecified) [euspeclibcmpd240],inactive: 0.445

row,SMILES,Srxn1-GFP intensity median modified Z-score
1,COc1ccc2c(c1)c(CC(=O)O)c(C)n2C(=O)c1ccc(Cl)cc1 [euspeclibcmpd160],inactive: -0.0155
2,CN1CCC(=C2c3ccccc3CCc3cccnc32)CC1 [euspeclibcmpd358],inactive: 0.77
3,OC[C@H]1O[C@H](O[C@]2(CCl)O[C@H](CCl)[C@@H](O)[C@@H]2O)[C@H](O)[C@@H](O)[C@H]1Cl [euspeclibcmpd1232],inactive: -0.465
4,Cc1c(C(=O)O)c(O)cc2c(O)c3c(O)c(O)c(C4O[C@H](CO)[C@@H](O)[C@H](O)C4=O)c(O)c3c(O)c12 (stereo partly specified) [euspeclibcmpd1436],inactive: -0.693
5,COc1c(CC(=O)c2cc3c(cc2O)OC(C)(C)C(O)C3)ccc2c1C=CC(C)(C)O2 (stereo unspecified) [euspeclibcmpd1608],active: 7.77
6,CCOC(=O)COc1ccc2c(=O)cc(-c3ccccc3)oc2c1 [euspeclibcmpd1189],inactive: -0.365
7,CCC(C)[C@H]1O[C@]2(C=C[C@@H]1C)C[C@@H]1C[C@@H](C/C=C(\C)[C@@H](OC3C[C@H](OC)C(O[C@H]4C[C@H](OC)[C@@H](O)[C@H](C)O4)[C@H](C)O3)[C@@H](C)/C=C/C=C3\CO[C@@H]4[C@H](OC)C(C)=CC(C(=O)O1)[C@]34O)O2 (stereo partly specified) [euspeclibcmpd1403],active: 5.69
8,C[C@](N)(Cc1ccc(O)c(O)c1)C(=O)O [euspeclibcmpd194],inactive: -0.447
9,Clc1ccc(C(Cn2ccnc2)OCc2ccsc2Cl)c(Cl)c1 (stereo unspecified) [euspeclibcmpd1174],active: 15.7
10,CCC(C)C(=O)O[C@H]1C[C@H](O)C=C2C=C[C@H](C)[C@H](CC[C@@H](O)C[C@@H](O)CC(=O)O)C21 (stereo partly specified) [euspeclibcmpd2392],inactive: -0.0232
11,CC(C)NCC(O)COc1ccc(CCOCC2CC2)cc1 (stereo unspecified) [euspeclibcmpd810],inactive: -0.00211
12,O=C(O)c1cn(C2CC2)c2cc(N3CCNCC3)c(F)cc2c1=O [euspeclibcmpd592],inactive: -0.385
13,Cc1cc(C(C)(C)C)c(O)c(C(C)(C)C)c1 [euspeclibcmpd1001],active: 14.5
14,Cn1c(=O)[nH]c2ncn(C)c2c1=O [euspeclibcmpd1780],inactive: 0.2
15,Cn1cnc2c1c(=O)[nH]c(=O)n2C [euspeclibcmpd947],inactive: -0.101
16,NCCCNCCCCNCCCN [euspeclibcmpd1526],inactive: 0.00434
17,CCN(CC)CCNC(=O)c1cc(Cl)c(N)cc1OC [euspeclibcmpd197],active: 86.5
18,O=C(O)CCNC(=O)c1ccccc1 [euspeclibcmpd1171],inactive: -0.393
19,OCCN=CCNc1ccc(NCCNCCO)c2c(O)c3c(O)ccc(O)c3c(O)c12 [euspeclibcmpd568],inactive: -1.55
20,CC(=O)NC(Cc1ccccc1)C(=O)O (stereo unspecified) [euspeclibcmpd2074],inactive: -0.102
21,CC(=O)NC(Cc1ccccc1)C(=O)O (stereo unspecified) [euspeclibcmpd1186],inactive: -0.292
22,CCCCCCCCCCCCCCCCCCCCCCO [euspeclibcmpd1090],inactive: -0.229
23,NCCCC(=O)O [euspeclibcmpd1048],inactive: -0.298
24,CC(=O)Oc1cc(OC(C)=O)c2c(c1)O[C@H](c1ccc(OC(C)=O)c(OC(C)=O)c1)[C@@H](OC(C)=O)C2 [euspeclibcmpd2426],inactive: -0.397

row,SMILES,Srxn1-GFP intensity median modified Z-score
1,NS(=O)(=O)c1cc2c(cc1Cl)NC(C(Cl)Cl)NS2(=O)=O (stereo unspecified) [euspeclibcmpd305],inactive: -0.276
2,C=C(NC(=O)C(C)=NC(=O)c1csc(C2=NC3c4csc(n4)C4NC(=O)c5csc(n5)C(C(C)(O)C(C)O)NC(=O)C5CSC(=N5)C(=CC)NC(=O)C(C(C)O)NC(=O)c5csc(n5)C3(CC2)NC(=O)C(C)NC(=O)/C(C)=N/C(=O)C(C)NC(=O)C(C(C)CC)NC2C=Cc3c(C(C)O)cc(nc3C2O)C(=O)OC4C)n1)C(N)=O (stereo unspecified) [euspeclibcmpd703],active: 19.1
3,CN(C)CCOC(c1ccccc1)c1ccccc1 [euspeclibcmpd2254],inactive: 0.213
4,CN(C)CCOC(c1ccccc1)c1ccccc1 [euspeclibcmpd2387],inactive: 0.421
5,CC(=O)Oc1ccccc1C(=O)N=c1[nH]cc([N+](=O)[O-])s1 [euspeclibcmpd615],active: 2.79
6,COc1ccc2[nH]c([S+]([O-])Cc3ncc(C)c(OC)c3C)nc2n1 (stereo unspecified) [euspeclibcmpd1091],inactive: 0.412
7,CCN(CC)C(=O)c1cccnc1 [euspeclibcmpd924],inactive: -0.51
8,CCN(CC)C(=O)c1cccc(C)c1 [euspeclibcmpd939],inactive: -0.0686
9,CCCN(CCC)S(=O)(=O)c1ccc(C(=O)O)cc1 [euspeclibcmpd246],inactive: 0.252
10,C=C(C)[C@@H]1CC[C@]2(C(=O)O)CC[C@]3(C)[C@H](CCC4[C@@]5(C)CC[C@H](O)C(C)(C)C5CC[C@]43C)[C@@H]12 (stereo partly specified) [euspeclibcmpd1473],inactive: -0.366
11,COc1c(C/C=C(\C)CCC(=O)O)c(O)c2c(O)occ2c1C [euspeclibcmpd334],active: 11.8
12,CN(C)CCN(Cc1ccccc1)c1ccccn1 [euspeclibcmpd312],inactive: -0.754
13,Clc1ccc(CSC(Cn2ccnc2)c2ccc(Cl)cc2Cl)cc1 (stereo unspecified) [euspeclibcmpd401],active: 22.5
14,N=C(N)NC(=O)Cc1c(Cl)cccc1Cl [euspeclibcmpd784],inactive: 1.94
15,COc1cc(O)c(C(=O)c2ccccc2)cc1S(=O)(=O)O [euspeclibcmpd799],inactive: -0.0206
16,Clc1ccc(Cn2c(CN3CCCC3)nc3ccccc32)cc1 [euspeclibcmpd1234],inactive: -0.0615
17,O=C1c2ccccc2C(=O)C1c1ccc(Cl)cc1 [euspeclibcmpd1181],inactive: 0.145
18,O=C(O)COCCN1CCN(C(c2ccccc2)c2ccc(Cl)cc2)CC1 (stereo unspecified) [euspeclibcmpd2104],inactive: -0.409
19,CCC1(c2ccccc2)NC(=O)N(C)C1=O (stereo unspecified) [euspeclibcmpd2205],inactive: 0.812
20,COc1cc(C(=O)NCCCCCC(=O)O)cc(OC)c1OC [euspeclibcmpd778],inactive: -0.747
21,CCc1c(C)[nH]c2c1C(=O)C(CN1CCOCC1)CC2 (stereo unspecified) [euspeclibcmpd2164],inactive: 0.203
22,Cc1ncc(CO)c(CO)c1O [euspeclibcmpd795],inactive: 0.71
23,N=C(N)NS(=O)(=O)c1ccc(N)cc1 [euspeclibcmpd1062],inactive: -0.469
